From patent publication US20190343964A1 (SHIZUOKA PERFECTURE, published 2019)

Molecular target: T1, B7-H4 expressed on the membrane surface of cancer cells (human, UniProt Q7Z7D3 25-282)
T1 sequence (looked up): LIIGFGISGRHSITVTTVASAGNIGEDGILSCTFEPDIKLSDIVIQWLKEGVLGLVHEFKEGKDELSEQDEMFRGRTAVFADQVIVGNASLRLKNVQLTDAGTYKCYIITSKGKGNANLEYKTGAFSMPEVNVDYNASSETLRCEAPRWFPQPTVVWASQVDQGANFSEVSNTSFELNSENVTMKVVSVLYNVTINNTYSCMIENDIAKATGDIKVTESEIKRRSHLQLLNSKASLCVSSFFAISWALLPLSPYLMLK
Assay: cell-based or functional assay

B1: scFv-scFv according to the present invention (bispecific antibody)
chain: NIQMTQSPSSLAVSAGEKVTMSCKSSHAVLYSSNQKNYLAWYQQKPGQSPKLLIYWASTRDSGVPDRFTGGGSGTDFTLTITNIQPEDLAVYYCHQYLSSWTFGGGTKVEIKGGSGGGGSGGGGSGGEFQLQQSGPELVKPGASVKMSCKASGYIFTSYVVHWVKQKPGQGLEWIGYINPYNDGTKYSEKFKGKATLTSDKSSSTAYMELSSLTSDDSAVYYCARDGVYGYHAMDCWGQGTSVTVSSGGSGGGGSGGGGSGGQVQLQQSGAELARPGASVKMS[about 80 residues not shown]WGQGTTLTVSSGGSGGGGSGGGGSGGQIVLTQSPAIMSASPGEKVTMTCSASSSVSYMNWYQQKSGTSPKRWIYDTSKLASGVPAHFRGSGSGTSYSLTISGMEAEDAATYYCQQWSSNPFTFGSGTKLEIKGGGHHHHHH
50% maximum effective concentration (EC50) of cytotoxicity (% Lysis) to MDA-MB-468 cells, LDH release, with human peripheral blood mononuclear cells, 16 hours: 0.068 µg/mL
